B1: LINE1-full (parent)
chain: UACGUAGGUGGUUUUCCCCUGAUAGUGCUAAGGGGGCCUGGAAGUUUGGACUGGGCAGAGCUCAACACAGCGUGGCAAAGUGGCUGUGGCUAGACUGCCUCUCUGGAUUCCUCGUCACUCAGCAGGGCAUCUCUGAGAGAAAUGCC

Read counts are not given, so values of variants with three or more changes are uncertain.

Variants of B1 are the subject of the series. Briefly: self-cleavage, relative activity (ratio to wild type); higher = more cleavage; in vitro, sequencing; the parent is a self-cleaving ribozyme.
Consider UACGUAGGUGGUUUUCCCCUGAUAGCGCUAAGGGGGCCUGGAAGUUUGGACUGGGCAGAGCUCAACACAGCGUGGCAAAGUGGCUGUGGCUAGACUGCCUCUCUGGAUUCCUCGUCGCUCAGCAGGGCAUCUCUGAGAGAAACGCC [U26C A117G U143C], for which the self-cleavage was 1.6.
For the variant UACGUAGGUGGUUUUCCCCUGAUAGUGCUAUGGGGGCCUGGAAGUUUGGACUGGGCUGAGCUCAGCACAGCGUGGCAGAGUGGCUGUGGAUAGACUGCCUCUCUGGAUUCCUCGUCACUCAGCAGGGCAUCUCUGAGAGAAAUGCC [A31U A57U A65G A78G C90A], the self-cleavage was 0.02.
Regarding UACGUAGGUGGUUUUCCCCUGAUAGUGCUAAGGGGGCCUGGAAGUUCGGACUGGGCAGAGCUCAACACAGCGUGGCAAAGUGGCUGUGGCUAGACUGCCUCUCUGGAUACCUCGUCACUCAGCAGGGCAUCUCUGAGAGGAAUGCC [U47C U109A A140G], the self-cleavage was 1.11.
The result for UACGUAGGUGGUUUUCCCCUGACAGUGCUAAGGGGGCCUGGGAGUUUGGACUGGGCAGAGCUCAACACAGCGUAGCAAAGUGGCUGUGGCUAGACUGCCACUCUGGAUUCCUCGUCACUCAGCAGGGCAUCUCUGAGAGAAGUGCC [U23C A42G G74A U100A A142G] reads 1.39; that for UACGUAGGUGGUUUUCCCCUGAUAGUGCUAAGGGGGCCUGGAAGUUUGGACUGGGCAGAGCUCAACACAGCGUGGCAAAGUAGCUGUGGCUAGACUGCCUCUCUGGAUUCCUCGACACUCAGCAGAGCAUCUCUGAGAGAGAUGCC [G82A U115A G126A A141G], 2.25.
The result for UACGUAGGUGGUUUUCCCCUGAUAGUGCUAGGGGGGCCUGGAAGUUUGGACUGGGCAGAGCUCAACACAGCGUGGCAAAGUGGCUGUGGCUAGACUGCCUCUCUGGACUCUUCGUCACUCAGCAGGGCAUCUCUGAGAGAAAUGCC [A31G U108C C111U] reads 0; that for UACGUAGGUGGUGUUCCCCUGAUAGUGCUAAGGGGGCCUGGAAGUUUGGACUGGGCAGAGCUCAACACAGCGUGGCAAAGCGGCUGUGGCUAGACUGCCUCUCUGGAUUCCUCGUCACUCAGCAGGGCAUCACUGAGAGAAAUGCC [U13G U81C U132A], 1.23.
To UACGUGGGUGGUUUUCCCCUGAUAGUGCUAAGGGGGCCUGGAAGUUUGGACUGGGCAGAGCUCAACACAGCGUGGCAAAGUGGCUGUGGCUAGACUGCCUCACUGGAUACCUCGUCACUCAGCAGGGCAUCUCUGAGAGAAAUGCC [A6G U102A U109A] belongs 0.53.
On to UACGUAGGUGGUUUUCCCCUGAUAGAGCUAAGGGGGCCUGGAAGUUUGGACUGGGCAGAGCUCAACACAGCGUGGCAAAGUGGCUGUGGCUAGACUGCCUCUCUAGAUUCCUCGCCACUCAGCAGGGCAUCUCUGAGGGAAAUGCC [U26A G105A U115C A138G], for which the self-cleavage amounted to 1.34.
The result for UACGUAGGUGGUCUUCCCCUGAUAGUGCAAAGGGGGCCUGGAAGUUUGGACUGGGCAGAGCUCAACACAGCAUGGCAAAGUGGCUGUGGCUAGACUGCCUCUCUGGAUUCCUCGCCACUCAGCAGGGCAUCUCUGAGAGAAAUGCC [U13C U29A G72A U115C] reads 0.63.
To UACGUAGGCGGUUUUCCCCUGAUAGUGCUAAGGGGGCCGGGAAGUUUGGACUGGGCAGAGCUCAACACAGCGUGGCAAAGUGGCUGUGGCUAGACUGCCUCUCUGGAUUCCUCGCCACUCAGCAGGGCAUCUCUGAGAGAAAUGCC [U9C U39G U115C] belongs 1.79; to UACGUAGGUGGUUUUCCCCUGAUAGUGCUAAGGGGGCCUGGAAGUUUGGACUGGGCAGAGCUCAACACAGCGAGGCAAAGUGGCUGUGGCUAGACUGCCUCUCUGGAUUCCUCGCCACUCAGCAGGGCAUCUCCGAGAGAAAUGCC [U73A U115C U134C], 2.02.
The result for UACGUAGGUGGUUUUCCCCUGAUAGUGCUAAAGGGGCCUGGAAGUCUGGACUGGGCAGAGCUCGACACAGCGUGGCAAAGUGGCUGUGGCUAGACUGCCUCUCUGGAUACCUCGUCACUCAGCAGGGCAUCUCUGAGAGAAAUGCC [G32A U46C A64G U109A] reads 0.18; that for UACGUAGGUGGUUUUCCCCUGAUAGUGCUAAGGGGACCUGGAAGUUUGGACUGGGCAGAUCUCAACACAGCGUGGCAAAGUGGCAGUGGCUAGACUGCCUCUCUGGAUUCCUUGUCACUCAGCAGGGCAUCUCUGAGAGGAAUGCC [G36A G60U U85A C113U A140G], 0.01; that for UACGUACGUGGUUUUCCCCUGAUAGUGCUAAGGGGGCCUGGAAGUUUGGACUGGGCAGAGCUCAACACAGCGUGGCAAAGUGGCUGUGGCUAGACUGCCUCUCUGGACUCCUCGACACUCAGCAGGGCAUCUCUGAGAGAAAUGCC [G7C U108C U115A], 0.95.
For the variant UACGUAGGCGGUUUUCCCCUGAUAGCGCUAAGGGGGCCUGGAAGUUUGGACUGGGCAGAGCUCAACACAGCGUGGCAAAGUGGCUGUGGCAAGACUGCCUCUCUGGAUUCCUCGUCACUCAGCAGGGCAUCUCUGAGAGAAAUGCC [U9C U26C U91A], the self-cleavage came to 0.75.
The result for UACGUAGGUGGUCUUCCCCUGAUAGUGCUAAGGGGGCCUGGAAGUGUGGACUGGGCAGAGCUCAACACAGCGUGGCAAAGUGGCUGUGGCUAGACUGCCUCUCUGGAUUCCCCGUCACUCAGCAGGGCAUCUCUGAGAGAAAUGCC [U13C U46G U112C] reads 2.14.
To UACGUAGGUGGUAUUCCCCUGAUAGUGCUAAGGGGGCCUGGAAGUUUGGACUGGGCAGAGCUCAACUCAGCGUGGCAAAGUGGCUGUGGCUAGACUGCCUCUCUGGAUUCCUCGUCGCUCAGCAGGGCAUCUCUGAGAGAAAUGCC [U13A A67U A117G] belongs 0; to UACGUAGGUGGGUUUCCCCUGAUAGUGCUAAGGGGGCCUGGAAGUUUGGACAGGGCAGAGCUCAACACAGCGUGGCAAAGUGGCUGUGGCUAGACUGCCUCUCUGGACUCCUCGUCACUCAGCAGGGCAUCUCUGAGAGAAAUGCC [U12G U52A U108C], 1.84; to UACGUAGGUGGGCUUCCCCUGAUAGUGCUAAGGGGGCCUGGAAGUUUGGACAGGGCAGAGCUCAACACAGCGUGGCAAAGUGGCUGUGGCUAGACUGCCCCUCUGGAUUCCUCGUCACUCAACAGGGCAUCUCUGAGAGAAAUGCC [U12G U13C U52A U100C G122A], 1.67.

For the origin of these results see the RNAGym collection of RNA variant scans (doi:10.7554/elife.90254).
